These are yes or no findings as the source states them, for the method shown. Binding seen in cells or lysates may run through a third protein. Tags and fused reporters may be left off the sequences shown.
What was measured:
[1] = target: T1, GST-tagged VPS41 RING domain (residues 778–854) (human) (UniProt P49754); test: pull-down; 0.5 nmol purified GST-tagged bait on magnetic glutathione beads; prey myc-tagged, wheat germ cell-free expression reaction; 4°C, 60 min; 20 mM Tris, 200 mM NaCl, 0.1% NP-40, 1 mM DTT, 1 mM EDTA; anti-myc immunoblot; only the target purified
T1 sequence: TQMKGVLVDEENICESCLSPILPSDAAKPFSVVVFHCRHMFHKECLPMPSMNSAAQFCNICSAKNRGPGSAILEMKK

[2] = target: T2, GST-tagged VPS18 RING domain (residues 842–973) (human) (UniProt Q9P253); test: as above
T2 sequence: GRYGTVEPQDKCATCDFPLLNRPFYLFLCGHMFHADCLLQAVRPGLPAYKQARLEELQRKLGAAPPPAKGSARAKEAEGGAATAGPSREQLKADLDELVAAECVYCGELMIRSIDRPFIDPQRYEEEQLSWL

B1: myc-tagged full-length VPS16 (protein, UniProt Q9H269 1-839)
chain: MDCYTANWNPLGDSAFYRKYELYSMDWDLKEELRDCLVAAAPYGGPIALLRNPWRKEKAASVRPVLDIYSASGMPLASLLWKSGPVVSLGWSAEEELLCVQEDGAVLVYGLHGDFRRHFSMGNEVLQNRVLDARIFHTEFGSGVAILTGAHRFTLSANVGDLKLRRMPEVPGLQSAPSCWTVLCQDRVAHILLAVGPDLYLLDHAACSAVTPPGLAPGVSSFLQMAVSFTYRHLALFTDTGYIWMGTASLKEKLCEFNCNIRAPPKQMVWCSRPRSKERAVVVAWERRLMVVGDAPESIQFVLDEDSYLVPELDGVRIFSRSTHEFLHEVPAASEEIFKIASMAPGALLLEAQKEYEKESQKADEYLREIQELGQLTQAVQQCIEAAGHEHQPDMQKSLLRAASFGKCFLDRFPPDSFVHMCQDLRVLNAVRDYHIGIPLTYSQYKQLTIQVLLDRLVLRRLYPLAIQICEYLRLPEVQGVSRILAHWACYKVQQKDVSDEDVARAINQKLGDTPGVSYSDIAARAYGCGRTELAIKLLEYEPRSGEQVPLLLKMKRSKLALSKAIESGDTDLVFTVLLHLKNELNRGDFFMTLRNQPMALSLYRQFCKHQELETLKDLYNQDDNHQELGSFHIRASYAAEERIEGRVAALQTAADAFYKAKNEFAAKATEDQMRLLRLQRRLEDELGGQFLDLSLHDTVTTLILGGHNKRAEQLARDFRIPDKRLWWLKLTALADLEDWEELEKFSKSKKSPIGYLPFVEICMKQHNKYEAKKYASRVGPEQKVKALLLVGDVAQAADVAIEHRNEAELSLVLSHCTGATDGATADKIQRARAQAQKK
binding [1]: no binding | binding [2]: no binding

B2: myc-tagged full-length VPS33A (protein, UniProt Q96AX1 1-596)
chain: MAAHLSYGRVNLNVLREAVRRELREFLDKCAGSKAIVWDEYLTGPFGLIAQYSLLKEHEVEKMFTLKGNRLPAADVKNIIFFVRPRLELMDIIAENVLSEDRRGPTRDFHILFVPRRSLLCEQRLKDLGVLGSFIHREEYSLDLIPFDGDLLSMESEGAFKECYLEGDQTSLYHAAKGLMTLQALYGTIPQIFGKGECARQVANMMIRMKREFTGSQNSIFPVFDNLLLLDRNVDLLTPLATQLTYEGLIDEIYGIQNSYVKLPPEKFAPKKQGDGGKDLPTEAKKLQLNSAEELYAEIRDKNFNAVGSVLSKKAKIISAAFEERHNAKTVGEIKQFVSQLPHMQAARGSLANHTSIAELIKDVTTSEDFFDKLTVEQEFMSGIDTDKVNNYIEDCIAQKHSLIKVLRLVCLQSVCNSGLKQKVLDYYKREILQTYGYEHILTLHNLEKAGLLKPQTGGRNNYPTIRKTLRLWMDDVNEQNPTDISYVYSGYAPLSVRLAQLLSRPGWRSIEEVLRILPGPHFEERQPLPTGLQKKRQPGENRVTLIFFLGGVTFAEIAALRFLSQLEDGGTEYVIATTKLMNGTSWIEALMEKPF
binding [1]: no binding | binding [2]: no binding

B3: myc-tagged full-length VPS39 (protein, UniProt Q96JC1-2 1-875)
chain: MHDAFEPVPILEKLPLQIDCLAAWEEWLLVGTKQGHLLLYRIRKDVGCNRFEVTLEKSNKNFSKKIQQIHVVSQFKILVSLLENNIYVHDLLTFQQITTVSKAKGASLFTCDLQHTETGEEVLRMCVAVKKKLQLYFWKDREFHELQGDFSVPDVPKSMAWCENSICVGFKRDYYLIRVDGKGSIKELFPTGKQLEPLVAPLADGKVAVGQDDLTVVLNEEGICTQKCALNWTDIPVAMEHQPPYIIAVLPRYVEIRTFEPRLLVQSIELQRPRFITSGGSNIIYVASNHFVWRLIPVPMATQIQQLLQDKQFELALQLAEMKDDSDSEKQQQIHHIKNLYAFNLFCQKRFDESMQVFAKLGTDPTHVMGLYPDLLPTDYRKQLQYPNPLPVLSGAELEKAHLALIDYLTQKRSQLVKKLNDSDHQSSTSPLMEGTPTIKSKKKLLQIIDTTLLKCYLHTNVALVAPLLRLENNHCHIEESEHVLKKAHKYSELIILYEKKGLHEKALQVLVDQSKKANSPLKGHERTVQYLQHLGTENLHLIFSYSVWVLRDFPEDGLKIFTEDLPEVESLPRDRVLGFLIENFKGLAIPYLEHIIHVWEETGSRFHNCLIQLYCEKVQGLMKEYLLSFPAGKTPVPAGEEEGELGEYRQKLLMFLEISSYYDPGRLICDFPFDGLLEERALLLGRMGKHEQALFIYVHILKDTRMAEEYCHKHYDRNKDGNKDVYLSLLRMYLSPPSIHCLGPIKLELLEPKANLQAALQVLELHHSKLDTTKALNLLPANTQINDIRIFLEKVLEENAQKKRFNQVLKNLLHAEFLRVQEERILHQQVKCIITEEKVCMVCKKKIGNSAFARYPNGVVVHYFCSKEVNPADT
binding [1]: no binding | binding [2]: no binding
